Drawing on PubChem BioAssay AID1745853 (National Center for Advancing Translational Sciences (NCATS), 2022), this text covers activity change, negative = inhibition for 19 molecules.

Molecules are shown by their SMILES. This is one part of the list. The main result of the screen is listed elsewhere. These columns were measured beside it and carry no call.

Test in all cases: Primary Screen for Target Class Profiling of Small Molecule Inhibitors of Methyltransferases
In test [1] the target is Glycine N-methyltransferase (Homo sapiens) (UniProt Q14749). The following applies: purified enzyme, MTase-Glo SAH luminescence; measured here: GNMT inhibition; at 40 µM; stronger effect = lower value. The text has this: (§1) PI: Matthew D. Hall Ph.D. and Quinlin M. Hanson Ph.D.
(§2) National Center for Advancing Translational Sciences (NCATS)
(§3) National Institute of Health (NIH), Rockville, MD
(§4) Target class profiling (TCP) is a chemical biology approach amenable to investigating understudied biological targets. TCP is achieved by developing a generalizable assay platform and applying it to screen a curated set of compound libraries against representative members of a target class. Small molecule methyltransferases (SMMTase) are a subclass of methyltransferase that act on metabolites to modulate signaling pathways, metabolize xenobiotics, or balance the available methyl pool. We screened four curated libraries totaling 27,574 unique compounds against the SMMTases nicotinamide N-methyltransferase (NNMT), phenylethanolamine N-methyltransferase (PNMT), histamine N-methyltransferase (HNMT), glycine N-methyltransferase (GNMT), catechol O-methyltransferase (COMT), and guanidinoacetate N-methyltransferase (GAMT). The data generated by this TCP can be leveraged for informed tool molecule development. For example, in the associated publication we identified a chemotype of HNMT-selective inhibitors. Additionally, we identified a putative SMMTase-selective inhibitor with potential as a tool molecule for studying broader methyltransferase biology.
(§5) High-through put screening assays were developed at the National Center for Advancing Translational Science (NCATS) for the enzymes NNMT, PNMT, HNMT, GNMT, COMT, and GAMT. Enzymatic activity was measured as a function of SAM cofactor conversion using the MTase Glo kit (Promega) for all enzymes. All assays were performed in 1536-well format with substrates and SAM concentrations at KM values. Enzyme concentration and assay timing were optimized for 10-20% SAM conversion. Initial screening of 27,574 compounds was done as single-point assays using the highest compound concentration (40 uM). […] These compounds were replated in 11-point dose response and assayed against NNMT, PNMT, HNMT, GNMT, COMT, GAMT, and a counter-assay. The IC50 and efficacy (maximal response) values were determined for each dose-response curve. These values are also accounted for in the area under the curve (AUC) values.
(§6) PROTOCOL TABLE (as described by Inglese J, Shamu CE and Guy RK. 2007)
(§7) SEQUENCE No. (e.g., 1, 2, 3, etc.); […] (e.g., Cells, Incubation, Reagent, etc.); VALUE; DESCRIPTION.
(§8) 1; Reagent; 2 uL; SMMTase Enzyme (2x) in reaction buffer, columns 1- 48.
(§9) 2; Reagent; 1 uL; SAM (4x) in reaction buffer, columns 1-48.
(§10) 3; Controls; 23 nL; DMSO in column 4; sinefungin in DMSO (0 uM - 40 uM) in 7-point 1:2 dilution series (n = 2) in column 2.
(§11) 4; Compounds; 23 nL; Columns 5-48.
(§12) 5; Reagent; 1 uL; Substrate (4x) in reaction buffer, columns 2-48.
(§13) 6; Time; 20-30 min; Incubation.
(§14) 7; Reagent; 1 uL; MTase-Glo reagent (5X), columns 1-48.
(§15) 8; Time; 30 min; Incubation.
(§16) 9; Reagent; 5 uL; MTase-Glo Detection reagent, columns 1-48.
(§17) 10; Time; 30 min; Incubation, luminescence evolution.
(§18) 11; Detection; Luminescence; ViewLux uHTS Microplate Imager (PerkinElmer).
(§19) NOTES (numbers refer to Sequence numbers above)
(§20) 1, 2, 5. White Medium Binding Greiner 1536-well plates (Cat #789175-F, Greiner Bio-One, Monroe, NC); Reaction buffer: 50 mM Tris, pH 8.0, 3 mM MgCl2, 1 mM EDTA, 50 mM NaCl, 1 mM DTT, and 0.1 mg/mL BSA. Evaporation was prevented by covering assay plates with metal lids containing holes to allow gas diffusion.
(§21) 1. Six SMMTase were profiled: HNMT, GNMT, PNMT, COMT, NNMT, GAMT
(§22) 5. The corresponding substrate was used for each enzyme: HNMT - 5.3 uM Histamine; GNMT - >500 uM Glycine; PNMT - 16.2 uM Norephinephrine; COMT - 13.7 uM Norephinephrine; NNMT - 3.8 uM Nicotinamide; GAMT - 2.5 uM Guanidinoacetate.6, 8, 10. Room temperature
(§23) 6. Final reaction conditions: 10 nM COMT, 5 uM SAM, 15 uM norepinephrine, 50 mM Tris, pH 8.0, 3 mM MgCl2, 1 mM EDTA, 50 mM NaCl, 1 mM DTT, and 0.1 mg/mL BSA; refer to tables 2 and S1 for specific timing.
8. […]

For test [2], the target named is Guanidinoacetate N-methyltransferase (Homo sapiens) (UniProt Q14353). The following applies: purified enzyme, MTase-Glo SAH luminescence; measured here: GAMT inhibition; at 40 µM; stronger effect = lower value.
Text: as §1, §2, §3, §4, §5, §6, §7, §8, §9, §10, §11, §12, §13, §14, §15, §16, §17, §18, §19, §20, §21, §22, §23
8. […]

In test [3] the target is Histamine N-methyltransferase (Homo sapiens) (UniProt P50135). The following applies: purified enzyme, MTase-Glo SAH luminescence; measured here: HNMT inhibition; at 40 µM; stronger effect = lower value.
Text: as §1, §2, §3, §4, §5, §6, §7, §8, §9, §10, §11, §12, §13, §14, §15, §16, §17, §18, §19, §20, §21, §22, §23
8. […]

Test [4] deals with Nicotinamide N-methyltransferase (Homo sapiens) (UniProt P40261). As to conditions: purified enzyme, MTase-Glo SAH luminescence; measured here: NNMT inhibition; at 40 µM; stronger effect = lower value.
Text: as §1, §2, §3, §4, §5, §6, §7, §8, §9, §10, §11, §12, §13, §14, §15, §16, §17, §18, §19, §20, §21, §22, §23
8. […]

For test [5], the target named is Phenylethanolamine N-methyltransferase (Homo sapiens) (UniProt P11086). The following applies: purified enzyme, MTase-Glo SAH luminescence; measured here: PNMT inhibition; at 40 µM; stronger effect = lower value.
Text: as §1, §2, §3, §4, §5, §6, §7, §8, §9, §10, §11, §12, §13, §14, §15, §16, §17, §18, §19, §20, §21, §22, §23
8. […]
% is set by controls: 0 for no effect and ±100 for the full control effect.

Consider `CCCn1c(=O)c2cc(Cl)ccc2n2c(SCc3cccc(F)c3)nnc12`, for which the activity change, negative = inhibition is -19.2% in test [1]; 3.97% in test [2]; 0.771% in test [3]; -11.1% in test [4]; 0.556% in test [5].

Consider `CC(C)c1noc(Cn2nc(-c3ccccc3)c3ccccc3c2=O)n1`, for which the activity change, negative = inhibition is -1.87% in test [1]; -1.65% in test [2]; 0.418% in test [3]; -1.27% in test [4]; -1.23% in test [5].

As for `CN(CCN1CCCCCC1)C(=O)c1cc(COc2ccccc2)[nH]n1`, the activity change, negative = inhibition in test [1] is -5.34%; in test [2], -1.95%; in test [3], -18.8%; in test [4] it was -8.32%; in test [5], 6.91%.

For the molecule `O=C(O)c1ccc(NC(=O)[C@H](CC2CCCC2)n2cnc(C(F)(F)F)c2)nc1`, the activity change, negative = inhibition in test [1] was 2.93%; in test [2], 1.02%; in test [3], 9.32%; in test [4], -14.5%; in test [5], 7.19%.

For `O=C(c1ccc2c(=O)nc3c(-c4ccc(Cl)cc4)n[nH]n3c2c1)N1CCN(Cc2ccccc2)CC1`, the activity change, negative = inhibition in test [1] is -30.3%; in test [2], 1.91%; in test [3] it was -1.06%; in test [4] it was 0.081%; in test [5], -0.546%.

On to `COc1ccc(CNC(=O)[C@@H]2CCC[C@@H](NCc3cccnc3)CN(C)C(=O)C2)cc1`, for which the activity change, negative = inhibition in test [1] is -3.67%; in test [2], -6.84%; in test [3] it was -1.38%; in test [4] it was -9.33%; in test [5], -5.61%.

`Cc1cccc(C2c3cccn3-c3sc4c(c3CN2C(=O)Nc2ccccc2F)CCCC4)c1` (stereo not drawn): the activity change, negative = inhibition in test [1] was -4.41%; in test [2] it was 3.23%; in test [3] it was -6.21%; in test [4] it was -1.57%; in test [5], -0.198%.

For `COc1ccc(S(=O)(=O)c2nnn3c2nc(Nc2cccc(C)c2)c2ccccc23)cc1`, the activity change, negative = inhibition in test [1] was -1.67%; in test [2], 5.38%; in test [3], 3.71%; in test [4] it was 3.02%; in test [5], -3.84%.

On to `O[C@@H]1[C@@H](Cn2cc(C3CC3)nn2)C[C@@H](NCc2nccs2)[C@@H]1O`, for which the activity change, negative = inhibition in test [1] is -2.02%; in test [2], 0.092%; in test [3] it was 0.419%; in test [4], 3.51%; in test [5], -3.31%.

On to `COc1ccc(CN2C(=O)c3ccc(-c4ccco4)n3CC2(C)C(=O)NC2CCCCC2)cc1OC` (stereo not drawn), for which the activity change, negative = inhibition in test [1] was -5.77%; in test [2], 2.38%; in test [3] it was -0.764%; in test [4], -8.77%; in test [5] it was -1.44%.

Turning to `COCC1CN(C)CC12CCN(C(=O)Cc1ccc(OC)c(Cl)c1)CC2` (stereo not drawn), the activity change, negative = inhibition in test [1] is -7.17%; in test [2], -4.92%; in test [3], -26.7%; in test [4] it was -6.51%; in test [5] it was 0.257%.

As for `CCC(C)NC(=O)c1ccc2c(=O)n(C)c3nnc(SCc4ccccc4Cl)n3c2c1` (stereo not drawn), the activity change, negative = inhibition in test [1] was 5.33%; in test [2], 0.334%; in test [3], 9.19%; in test [4] it was 4.46%; in test [5], 5.25%.

For `COCCNC(=O)c1ccc2c(=O)nc3c(-c4ccccc4)n[nH]n3c2c1`, the activity change, negative = inhibition in test [1] is 4.09%; in test [2], 3.94%; in test [3] it was 4.22%; in test [4], 7.13%; in test [5], 3.09%.

Take `O=C(Cn1nc2n(Cc3ccccc3)c(=O)c3ccccc3n2c1=O)c1cccc(Cl)c1`: the activity change, negative = inhibition in test [1] is 0.929%; in test [2], 7.56%; in test [3], -0.903%; in test [4], -10%; in test [5] it was 2.18%.

Turning to `C=C1[C@H]2CC[C@]3(O)[C@@](CC[C@@H]4[C@](C)(C(=O)O)CCC[C@]43C)(C2)[C@H]1OC(=O)/C(C)=C\C`, the activity change, negative = inhibition in test [1] was 1.19%; in test [2] it was -1.8%; in test [3], 8.78%; in test [4], -14.1%; in test [5], 4.61%.

For `CN(C)CC(C)(C)CNc1nn2c(-c3ccccc3)nnc2cc1C1CCC1`, the activity change, negative = inhibition in test [1] is 4.22%; in test [2] it was 7.51%; in test [3] it was 11.5%; in test [4], -6.42%; in test [5], 4.08%.

On to `COCCN1CCOC[C@H]2CCN(C(=O)c3cnccn3)C[C@H]21`, for which the activity change, negative = inhibition in test [1] is -2.76%; in test [2], -10.8%; in test [3] it was -2.21%; in test [4], -6.44%; in test [5], -4.99%.

On to `CCOC(=O)c1cc2ccc(O)cc2oc1=O`, for which the activity change, negative = inhibition in test [2] is -1.93%; in test [4], -21.5%; in test [5], -13.3%.

Regarding `COc1cccc([S+](=O)([O-])N2CCC3(C2)N=C(c2cccnc2)C(=O)N3)c1` (stereo not drawn), the activity change, negative = inhibition in test [1] is -6.47%; in test [2] it was -8.77%; in test [3], -3.13%; in test [4] it was -10.1%; in test [5] it was -61.5%.
